# Source: ChEMBL document CHEMBL5606460, “ASAP - DENV-2 NS2B-NS3 protease fluorescence single point” (2024)
# The campaign covered roughly 2,000 compounds. About 110 (5.5%) showed an effect of 50% or more. Some of the results follow.
# Target: Genome polyprotein (dengue virus type 2) (UniProt P29990)
# [1] = Thailand/16681/1984, Concentration 25.0 uM, Number of replicates 1.0
compound,measurement,setting,value
Cc1n[nH]cc1-c1ccccc1C(=O)Nc1cnn(C)c1,inhibition,"Thailand/16681/1984, Concentration 49.5 uM, Number of replicates 2.0, Standard deviation 1.4825862030761958 %",-4.22%
same,inhibition,"Thailand/16681/1984, Concentration 99.01 uM, Number of replicates 2.0, Standard deviation 3.6856999240165664 %",-5.61%
same,inhibition,"Thailand/16681/1984, Concentration 198.0 uM, Number of replicates 2.0, Standard deviation 2.662860479629087 %",-5.61%
O=Cc1ccc(N2CCC(C(=O)N3CCC4(CC3)CC(=O)c3ccccc3O4)CC2)cc1,inhibition,[1],11.6%
O=C(C(=O)N1CCOCC1)c1c[nH]c2ccccc12,inhibition,"Thailand/16681/1984, Concentration 49.5 uM, Number of replicates 2.0, Standard deviation 0.6407145366012766 %",0.9%
same,inhibition,"Thailand/16681/1984, Concentration 99.01 uM, Number of replicates 2.0, Standard deviation 1.98867718330887 %",1.61%
same,inhibition,"Thailand/16681/1984, Concentration 198.0 uM, Number of replicates 2.0, Standard deviation 1.596809388749934 %",3.54%
Cn1cc(NC(=O)c2ccccc2-c2ccc(C(=O)O)nc2)cn1,inhibition,"Thailand/16681/1984, Concentration 49.5 uM, Number of replicates 2.0, Standard deviation 3.6721540744191348 %",-3.01%
same,inhibition,"Thailand/16681/1984, Concentration 99.01 uM, Number of replicates 2.0, Standard deviation 4.856957640973825 %",-2.48%
same,inhibition,"Thailand/16681/1984, Concentration 198.0 uM, Number of replicates 2.0, Standard deviation 5.981907435360405 %",-0.768%
COc1cc(COc2ccnc3ccnn23)nc(N2CCNCC2)n1,inhibition,"Thailand/16681/1984, Concentration 49.5 uM, Number of replicates 2.0, Standard deviation 1.6931264436869704 %",-1.8%
same,inhibition,"Thailand/16681/1984, Concentration 99.01 uM, Number of replicates 2.0, Standard deviation 0.6739893892069304 %",-1.84%
same,inhibition,"Thailand/16681/1984, Concentration 198.0 uM, Number of replicates 2.0, Standard deviation 0.06794244782035012 %",-0.955%
O=Cc1ccc(N2CCC(C(=O)N3CCC[C@H](c4nnc5ccccn45)C3)CC2)cc1,inhibition,[1],12.6%
O=Cc1ccc(N2CCC(C(=O)NC3CCN(CC4CCOCC4)CC3)CC2)cc1,inhibition,[1],11%
Cc1cc(CO)c2cccc(Cc3cccc(C(=O)N[C@@H](CCCN)C(=O)O)c3)c2n1,inhibition,"Thailand/16681/1984, Concentration 49.95 uM, Number of replicates 2.0, Standard deviation 0.7049975000059713 %",-1.78%
same,inhibition,"Thailand/16681/1984, Concentration 99.9 uM, Number of replicates 2.0, Standard deviation 0.2824297407941699 %",11.7%
O=C(O)c1cnn(C2CCN(Cc3c[nH]nc3-c3ccccc3)CC2)n1,inhibition,"Thailand/16681/1984, Concentration 49.5 uM, Number of replicates 2.0, Standard deviation 0.4065248774274935 %",-0.721%
same,inhibition,"Thailand/16681/1984, Concentration 99.01 uM, Number of replicates 2.0, Standard deviation 0.1820182459648457 %",-1.14%
same,inhibition,"Thailand/16681/1984, Concentration 198.0 uM, Number of replicates 2.0, Standard deviation 0.9153367001493489 %",-1.33%
O=Cc1ccc(N2CCC(C(=O)N3CCN(Cc4ccc(Cl)nc4)CC3)CC2)cc1,inhibition,[1],10.1%
COc1ccc(S(=O)(=O)N2CCC(C(=O)Nc3nc4ccccc4s3)CC2)cc1,inhibition,"Thailand/16681/1984, Concentration 49.5 uM, Number of replicates 2.0, Standard deviation 1.3648800018415175 %",2.28%
same,inhibition,"Thailand/16681/1984, Concentration 99.01 uM, Number of replicates 2.0, Standard deviation 0.35874487080545164 %",4.97%
same,inhibition,"Thailand/16681/1984, Concentration 198.0 uM, Number of replicates 2.0, Standard deviation 3.7738315130637563 %",5.55%
c1ccc2c([C@H]3CCN(CCC4CCOCC4)C3)c[nH]c2c1,inhibition,"Thailand/16681/1984, Concentration 49.5 uM, Number of replicates 2.0, Standard deviation 1.27680522674612 %",2.4%
same,inhibition,"Thailand/16681/1984, Concentration 99.01 uM, Number of replicates 2.0, Standard deviation 0.5804152090241346 %",2.68%
same,inhibition,"Thailand/16681/1984, Concentration 198.0 uM, Number of replicates 2.0, Standard deviation 0.0005418398844560537 %",3.09%
NC(=O)c1cn(C[C@H]2CCCN2c2ccnc3ccccc23)nn1,inhibition,"Thailand/16681/1984, Concentration 49.5 uM, Number of replicates 2.0, Standard deviation 1.619804877884872 %",8.16%
same,inhibition,"Thailand/16681/1984, Concentration 99.01 uM, Number of replicates 2.0, Standard deviation 0.6247376778551609 %",17.3%
same,inhibition,"Thailand/16681/1984, Concentration 198.0 uM, Number of replicates 2.0, Standard deviation 0.4222615202105213 %",30.3%
O=Cc1ccc(N2CCC(C(=O)N3CCC(Cc4ccccc4)CC3)CC2)cc1,inhibition,[1],14.5%
Cn1cnc2[nH]c(C(=O)N3CC[C@H](c4c[nH]c5ccccc45)C3)cc21,inhibition,"Thailand/16681/1984, Concentration 49.5 uM, Number of replicates 2.0, Standard deviation 2.003876801484884 %",-2.49%
same,inhibition,"Thailand/16681/1984, Concentration 99.01 uM, Number of replicates 2.0, Standard deviation 1.2772748269322285 %",-1.94%
same,inhibition,"Thailand/16681/1984, Concentration 198.0 uM, Number of replicates 2.0, Standard deviation 1.685869304282425 %",-0.105%
O=Cc1ccc(N2CCC(C(=O)Nc3cnc(Cl)c(Br)c3)CC2)cc1,inhibition,[1],12.3%
CNC(=O)[C@H]1CN(S(=O)(=O)c2ccc(Oc3ccccc3Cl)cc2)CCO1,inhibition,"Thailand/16681/1984, Concentration 49.5 uM, Number of replicates 2.0, Standard deviation 0.2669928674711758 %",-4.8%
same,inhibition,"Thailand/16681/1984, Concentration 99.01 uM, Number of replicates 2.0, Standard deviation 0.624095865646037 %",-4.22%
same,inhibition,"Thailand/16681/1984, Concentration 198.0 uM, Number of replicates 2.0, Standard deviation 0.6183745152543801 %",-5.47%
Cc1cn2nnc(C(=O)N[C@H]3CCCCn4c3n[nH]c4=O)c2c(=O)[nH]1,inhibition,"Thailand/16681/1984, Concentration 49.5 uM, Number of replicates 2.0, Standard deviation 0.2359641679366373 %",-0.501%
same,inhibition,"Thailand/16681/1984, Concentration 99.01 uM, Number of replicates 2.0, Standard deviation 0.10523355791430405 %",-0.563%
same,inhibition,"Thailand/16681/1984, Concentration 198.0 uM, Number of replicates 2.0, Standard deviation 0.06258385535382655 %",-1.4%
Cc1c(C(=O)NCc2ccc(Cl)cc2OCCO)ccc(O)c1NC(=O)c1ccncc1F,inhibition,"Thailand/16681/1984, Concentration 49.5 uM, Number of replicates 2.0, Standard deviation 1.9465984757153059 %",-3.14%
same,inhibition,"Thailand/16681/1984, Concentration 99.01 uM, Number of replicates 2.0, Standard deviation 1.7394020396248402 %",-2.65%
same,inhibition,"Thailand/16681/1984, Concentration 198.0 uM, Number of replicates 2.0, Standard deviation 1.2400320592735166 %",0.351%
COCCN(Cc1cccc2ccccc12)C(=O)C1CCN(c2ccc(C=O)cc2)CC1,inhibition,[1],12.1%
Cc1cc(CO)c2cccc(NC(=O)[C@@H](N)CCN)c2n1,inhibition,"Thailand/16681/1984, Concentration 49.95 uM, Number of replicates 2.0, Standard deviation 3.3658560886244877 %",-1.14%
same,inhibition,"Thailand/16681/1984, Concentration 99.9 uM, Number of replicates 2.0, Standard deviation 3.0766976877592507 %",-5.81%
C[C@@H](Cc1c[nH]c2ccccc12)N1CC[C@H](n2ncc3ccccc32)C1,inhibition,"Thailand/16681/1984, Concentration 49.5 uM, Number of replicates 2.0, Standard deviation 0.03414198186691695 %",4.01%
same,inhibition,"Thailand/16681/1984, Concentration 99.01 uM, Number of replicates 2.0, Standard deviation 0.33925313348092145 %",4.54%
same,inhibition,"Thailand/16681/1984, Concentration 198.0 uM, Number of replicates 2.0, Standard deviation 0.5533184943542987 %",4.08%
